# Laboratory results: the supplement of paper PMC8728848
# The other results are listed elsewhere or left out.
# Tests used:
# Assay in all cases: glycan array binding signal (z-score within array); higher = stronger binding
# Details in all cases: glycan notation: IUPAC condensed, linker removed
# Fuc(a1-2)Gal = biological target: Fuc(a1-2)Gal
# Method in brief: (§1)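 Columns mapping to the same glycan were averaged after glycan names were converted to IUPAC-condensed notation. The data come from 3228 arrays in the Consortium for Functional Glycomics database, limited to those with an available protein sequence. Binding is reported as a within-array Z-score averaged across arrays of one protein sequence and across linkers.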
# Fuc(a1-2)Gal(b1-3)GalNAc = biological target: Fuc(a1-2)Gal(b1-3)GalNAc
# Method in brief: as §1
# [1] = biological target: Fuc(a1-2)Gal(b1-3)GalNAc(b1-3)Gal
# Method in brief: as §1
# [2] = biological target: Fuc(a1-2)Gal(b1-3)GalNAc(b1-3)Gal(a1-4)Gal(b1-4)Glc
# Method in brief: as §1
# [3] = biological target: Fuc(a1-2)Gal(b1-3)GalNAc(b1-3)Gal(b1-4)Glc
# Method in brief: as §1
# [4] = biological target: Fuc(a1-2)Gal(b1-3)GalNAc(b1-4)[Neu5Ac(a2-3)]Gal(b1-4)Glc
# Method in brief: as §1
# [5] = biological target: Fuc(a1-2)Gal(b1-3)[Fuc(a1-4)]GlcNAc
# Method in brief: as §1
# Fuc(a1-2)Gal(b1-4)Glc = biological target: Fuc(a1-2)Gal(b1-4)Glc
# Method in brief: as §1
# Fuc(a1-2)Gal(b1-4)GlcNAc = biological target: Fuc(a1-2)Gal(b1-4)GlcNAc
# Method in brief: as §1
# [6] = biological target: Fuc(a1-2)Gal(b1-4)GlcNAc(b1-3)Gal(b1-4)GlcNAc
# Method in brief: as §1
# [7] = biological target: Fuc(a1-2)Gal(b1-4)GlcNAc(b1-3)Gal(b1-4)GlcNAc(b1-3)Gal(b1-4)GlcNAc
# Method in brief: as §1
# [8] = biological target: Fuc(a1-2)Gal(b1-4)[Fuc(a1-3)]GalNAc(b1-3)Gal(b1-4)[Fuc(a1-3)]GlcNAc
# Method in brief: as §1
# [9] = biological target: Fuc(a1-2)Gal(b1-4)[Fuc(a1-3)]GalNAc(b1-3)Gal(b1-4)[Fuc(a1-3)]GlcNAc(b1-3)Gal(b1-4)[Fuc(a1-3)]GalNAc
# Method in brief: as §1
# [10] = biological target: Fuc(a1-2)Gal(b1-4)[Fuc(a1-3)]GlcNAc
# Method in brief: as §1
# Fuc(a1-2)GlcNAc = biological target: Fuc(a1-2)GlcNAc
# Method in brief: as §1
# Fuc(a1-2)[Gal(a1-3)]Gal = biological target: Fuc(a1-2)[Gal(a1-3)]Gal
# Method in brief: as §1
# [11] = biological target: Fuc(a1-2)[Gal(a1-3)]Gal(b1-3)GlcNAc
# Method in brief: as §1
# [12] = biological target: Fuc(a1-2)[Gal(a1-3)]Gal(b1-4)Glc
# Method in brief: as §1
# [13] = biological target: Fuc(a1-2)[Gal(a1-3)]Gal(b1-4)GlcNAc
# Method in brief: as §1
# [14] = biological target: Fuc(a1-2)[Gal(a1-3)]Gal(b1-4)[Fuc(a1-3)]GlcNAc
# Method in brief: as §1
# [15] = biological target: Fuc(a1-2)[Gal(a1-4)]Gal(b1-4)GalNAc
# Method in brief: as §1
# [16] = biological target: Fuc(a1-2)[GalNAc(a1-3)]Gal
# Method in brief: as §1
# [17] = biological target: Fuc(a1-2)[GalNAc(a1-3)]Gal(b1-3)GlcNAc
# Method in brief: as §1
# [18] = biological target: Fuc(a1-2)[GalNAc(a1-3)]Gal(b1-4)Glc
# Method in brief: as §1
# [19] = biological target: Fuc(a1-2)[GalNAc(a1-3)]Gal(b1-4)GlcNAc
# Method in brief: as §1
# [20] = biological target: Fuc(a1-2)[GalNAc(a1-3)]Gal(b1-4)[Fuc(a1-3)]GlcNAc
# Method in brief: as §1
# [21] = biological target: Fuc(a1-2)[GalNAc(a1-4)]Gal(b1-4)GlcNAc
# Method in brief: as §1
# Fuc(a1-3)GlcNAc = biological target: Fuc(a1-3)GlcNAc
# Method in brief: as §1
# [22] = biological target: Fuc(a1-3)[Gal(b1-4)]GlcNAc
# Method in brief: as §1
# [23] = biological target: Fuc(a1-3)[Gal(b1-4)]GlcNAc(b1-4)Gal(b1-4)[Fuc(a1-3)]GlcNAc
# Method in brief: as §1
# [24] = biological target: Fuc(a1-3)[Gal(b1-4)]GlcNAc(b1-4)Gal(b1-4)[Fuc(a1-3)]GlcNAc(b1-4)Gal(b1-4)[Fuc(a1-3)]GlcNAc
# Method in brief: as §1
# [25] = biological target: Fuc(a1-3)[Gal3S(b1-4)]GlcNAc
# Method in brief: as §1
# [26] = biological target: Fuc(a1-3)[GalNAc(b1-4)]Gal(b1-4)GlcNAc
# Method in brief: as §1
# Fuc(a1-4)GlcNAc = biological target: Fuc(a1-4)GlcNAc
# Method in brief: as §1
# Fuc(b1-3)GlcNAc = biological target: Fuc(b1-3)GlcNAc
# Method in brief: as §1
# Gal(a1-2)Gal = biological target: Gal(a1-2)Gal
# Method in brief: as §1
# Gal(a1-3)Gal = biological target: Gal(a1-3)Gal
# Method in brief: as §1
# Gal(a1-3)Gal(b1-3)Glc = biological target: Gal(a1-3)Gal(b1-3)Glc
# Method in brief: as §1
# Gal(a1-3)Gal(b1-3)GlcNAc = biological target: Gal(a1-3)Gal(b1-3)GlcNAc
# Method in brief: as §1
# Gal(a1-3)Gal(b1-4)GlcNAc = biological target: Gal(a1-3)Gal(b1-4)GlcNAc
# Method in brief: as §1
# [27] = biological target: Gal(a1-3)Gal(b1-4)[Fuc(a1-3)]GalNAc
# Method in brief: as §1
# Gal(a1-3)GlcNAc = biological target: Gal(a1-3)GlcNAc
# Method in brief: as §1
# [28] = biological target: Gal(a1-3)[Gal(a1-4)]Gal(b1-4)GlcNAc
# Method in brief: as §1
# Gal(a1-4)Gal(b1-4)Gal = biological target: Gal(a1-4)Gal(b1-4)Gal
# Method in brief: as §1
# Gal(a1-4)Gal(b1-4)GalNAc = biological target: Gal(a1-4)Gal(b1-4)GalNAc
# Method in brief: as §1
# Gal(a1-4)GlcNAc = biological target: Gal(a1-4)GlcNAc
# Method in brief: as §1
# Gal(a1-6)Glc = biological target: Gal(a1-6)Glc
# Method in brief: as §1
# Gal(b1-2)Gal = biological target: Gal(b1-2)Gal
# Method in brief: as §1
# Gal(b1-3)Gal = biological target: Gal(b1-3)Gal
# Method in brief: as §1
# Gal(b1-3)GalNAc = biological target: Gal(b1-3)GalNAc
# Method in brief: as §1
# [29] = biological target: Gal(b1-3)GalNAc(b1-3)Gal(a1-4)Gal(b1-4)Glc
# Method in brief: as §1
# [30] = biological target: Gal(b1-3)GalNAc(b1-3)Gal(b1-4)Glc
# Method in brief: as §1
# [31] = biological target: Gal(b1-3)GalNAc(b1-3)Gal(b1-4)GlcNAc
# Method in brief: as §1
# [32] = biological target: Gal(b1-3)GalNAc(b1-4)Gal(b1-4)Glc
# Method in brief: as §1
# [33] = biological target: Gal(b1-3)GalNAc(b1-4)[Neu5Ac(a2-3)]Gal(b1-4)Glc
# Method in brief: as §1
# [34] = biological target: Gal(b1-3)[Fuc(a1-4)]GlcNAc
# Method in brief: as §1
# [35] = biological target: Gal(b1-3)[Fuc(a1-4)]GlcNAc(b1-3)Gal(b1-4)GlcNAc
# Method in brief: as §1
# [36] = biological target: Gal(b1-3)[Fuc(a1-4)]GlcNAc(b1-3)Gal(b1-4)[Fuc(a1-3)]GlcNAc
# Method in brief: as §1
# [37] = biological target: Gal(b1-3)[GlcNAc(b1-6)]GalNAc
# Method in brief: as §1
# [38] = biological target: Gal(b1-3)[GlcNAc(b1-6)]GlcNAc
# Method in brief: as §1
binder,measurement,setting,value
"HMGB1 (Rattus norvegicus), P63159 (protein) MGKGDPKKPRGKMSSYAFFVQTCREEHKKKHPDASVNFSEFSKKCSERWKTMSAKEKGKFEDMAKADKARYEREMKTYIPPKGETKKKFKDPNAPKRPPSAFFLFCSEYRPKIKGEHPGLSIGDVAKKLGEMWNNTAADDKQPYEKKAAKLKEKYEKDIAAYRAKGKPDAAKKGVVKAEKSKKKKEEEDDEEDEEDEEEEEEEEDEDEEEDDDDE",glycan array binding signal (z-score),Fuc(a1-2)Gal,0.117
same,glycan array binding signal (z-score),Fuc(a1-2)Gal(b1-3)GalNAc,-0.34
same,glycan array binding signal (z-score),[1],0.287
same,glycan array binding signal (z-score),[2],0.32
same,glycan array binding signal (z-score),[3],-0.547
same,glycan array binding signal (z-score),[4],-0.006
same,glycan array binding signal (z-score),[5],1.15
same,glycan array binding signal (z-score),Fuc(a1-2)Gal(b1-4)Glc,-0.708
same,glycan array binding signal (z-score),Fuc(a1-2)Gal(b1-4)GlcNAc,0.232
same,glycan array binding signal (z-score),[6],-0.592
same,glycan array binding signal (z-score),[7],-0.587
same,glycan array binding signal (z-score),[8],-0.383
same,glycan array binding signal (z-score),[9],-0.163
same,glycan array binding signal (z-score),[10],0.047
same,glycan array binding signal (z-score),Fuc(a1-2)GlcNAc,1.12
same,glycan array binding signal (z-score),Fuc(a1-2)[Gal(a1-3)]Gal,-0.649
same,glycan array binding signal (z-score),[11],-0.615
same,glycan array binding signal (z-score),[12],0.151
same,glycan array binding signal (z-score),[13],-0.301
same,glycan array binding signal (z-score),[14],-0.425
same,glycan array binding signal (z-score),[15],-0.437
same,glycan array binding signal (z-score),[16],-0.068
same,glycan array binding signal (z-score),[17],-0.311
same,glycan array binding signal (z-score),[18],-0.561
same,glycan array binding signal (z-score),[19],-0.034
same,glycan array binding signal (z-score),[20],-0.019
same,glycan array binding signal (z-score),[21],-0.577
same,glycan array binding signal (z-score),Fuc(a1-3)GlcNAc,9.99
same,glycan array binding signal (z-score),[22],-0.513
same,glycan array binding signal (z-score),[23],-0.193
same,glycan array binding signal (z-score),[24],-0.049
same,glycan array binding signal (z-score),[25],-0.636
same,glycan array binding signal (z-score),[26],-0.63
same,glycan array binding signal (z-score),Fuc(a1-4)GlcNAc,-0.088
same,glycan array binding signal (z-score),Fuc(b1-3)GlcNAc,-0.654
same,glycan array binding signal (z-score),Gal(a1-2)Gal,-0.374
same,glycan array binding signal (z-score),Gal(a1-3)Gal,-0.356
same,glycan array binding signal (z-score),Gal(a1-3)Gal(b1-3)Glc,-0.433
same,glycan array binding signal (z-score),Gal(a1-3)Gal(b1-3)GlcNAc,-0.625
same,glycan array binding signal (z-score),Gal(a1-3)Gal(b1-4)GlcNAc,-0.184
same,glycan array binding signal (z-score),[27],0.108
same,glycan array binding signal (z-score),Gal(a1-3)GlcNAc,-0.253
same,glycan array binding signal (z-score),[28],-0.404
same,glycan array binding signal (z-score),Gal(a1-4)Gal(b1-4)Gal,-0.012
same,glycan array binding signal (z-score),Gal(a1-4)Gal(b1-4)GalNAc,-0.457
same,glycan array binding signal (z-score),Gal(a1-4)GlcNAc,-0.082
same,glycan array binding signal (z-score),Gal(a1-6)Glc,-0.488
same,glycan array binding signal (z-score),Gal(b1-2)Gal,-0.433
same,glycan array binding signal (z-score),Gal(b1-3)Gal,-0.292
same,glycan array binding signal (z-score),Gal(b1-3)GalNAc,-0.393
same,glycan array binding signal (z-score),[29],-0.447
same,glycan array binding signal (z-score),[30],0.641
same,glycan array binding signal (z-score),[31],-0.406
same,glycan array binding signal (z-score),[32],-0.082
same,glycan array binding signal (z-score),[33],-0.193
same,glycan array binding signal (z-score),[34],-0.265
same,glycan array binding signal (z-score),[35],-0.004
same,glycan array binding signal (z-score),[36],-0.599
same,glycan array binding signal (z-score),[37],-0.335
same,glycan array binding signal (z-score),[38],-0.685
